The results in this text go back to ChEMBL document CHEMBL4888484, “Replenishing the malaria drug discovery pipeline: Screening and hit evaluation of the MMV Hit Generation Library 1 (HGL1) against asexual blood stage Plasmodium falciparum ,using a nano luciferase reporter read-out” (2022).

For orientation: % Inhibition means the relative decrease from the control value, in per cent.

The structures appear in SMILES notation. About 540 (0.36%) of roughly 150,000 compounds showed an effect of 50% or more. The list shows a part of the results.

In this assay the test system is Plasmodium falciparum. Kind of assay: Primary screen in NF54 nanoGlo assay, in single point, at 2uM, 72h; a lower Z score goes with more inhibition. The note with it: timepoint 72 hour. It counts as functional, Erythrocyte.
On to `C[C@@H](C(=O)Nc1nccnc1C1CC1)c1ccccc1F`, for which the “% Inhibition” value is 1% and the Z score is reported as -0.18.
With `CC[C@@](C)(C(=O)NC1CCCC1)N(Cc1ccco1)C(=O)c1cnccn1`, the “% Inhibition” value turned out to be 10% and the Z score is listed as -1.21.
The corresponding values for `Cc1sc2ncnc(NCC(C)(C)N3CCN(C)CC3)c2c1C` are -11% and 0.97.
In the case of `CN(C[C@H]1CCOC1)S(=O)(=O)c1cc2cc(Cl)ccc2s1`, the “% Inhibition” value is given as -4% and the Z score is recorded as 0.36.
Taken in the same sequence, the figures for `O=C(Nc1ccc(-c2nc3ccc(NC(=O)C4CCCCC4)cc3s2)cc1)C1CCCCC1` were -15% and 2.38.
As for `O=C1N[C@H](CO)C(=O)N[C@H]1Cc1c[nH]c2ccccc12`, the “% Inhibition” value is on record as -4% and the Z score stood at 0.73.
Regarding `Cc1cc2ccccc2n1CC(=O)Nc1cc(N2CCCC2=O)ccc1F`, the “% Inhibition” value is given as -13% and the Z score is 1.43.
Taken in the same sequence, the figures for `Cc1ccc(NS(=O)(=O)c2ccc(C(=O)Nc3nnn[nH]3)cc2)cc1C` were -10% and 1.34.
As to `COc1cc(CN(C)Cc2cc(C3CC3)[nH]n2)ccc1OC[C@@H](O)CN(C)C(C)C`, the “% Inhibition” value is on record as 6% and the Z score is reported as -1.06.
Taken in the same sequence, the figures for `c1ccc2c3nc[nH]c(N4CCCC4)c-3nc2c1` were 6% and -0.69.
Consider `O=C(C[C@H]1CCCN1c1ccnc(C2CC2)n1)c1ccco1`, for which the “% Inhibition” value was found to be 37% and the Z score is recorded as -5.38.
The corresponding values for `Cc1csc(C(=O)N2CCCCS2(=O)=O)c1Cl` are -5% and 0.99.
Taken in the same sequence, the figures for `CCCOCCNC(=O)C1=C(C)NC(=O)N[C@H]1C` were -10% and 1.61.
`C[C@H]1CCCN(C(=O)NCCc2nccn2C(F)F)C1`: the “% Inhibition” value turned out to be 8% and the Z score was -1.02.
For `CN(C)C(=O)c1nn(CCC(F)(F)F)c2c1CNCC2`, the “% Inhibition” value worked out at 2% and the Z score is listed as -0.2.
The corresponding values for `OC(CN1CCC(CCCC2CCN(CC(O)c3ccccc3)CC2)CC1)c1ccccc1` (stereo not given) are -2% and 0.31.
For `C[C@H]1CN(C(=O)Nc2ccccc2)C2(CCCCCC2)O1`, the “% Inhibition” value turned out to be 1% and the Z score is reported as -0.15.
`CC(C)n1c([C@@H]2c3nc[nH]c3CCN2Cc2ccoc2)nc2ccccc21`: the “% Inhibition” value is on record as -6% and the Z score came to 0.56.
Taken in the same sequence, the figures for `Cc1cnccc1CN1CC[C@H](N2CCOCC2)[C@H](CCCO)C1` were -3% and 0.55.
Consider `COc1ccccc1CN(Cc1nc(C(=O)NCCN(C)C)co1)C(C)C`, for which the “% Inhibition” value was determined as 1% and the Z score was -0.12.
For the compound `c1ccc(COC[C@H]2c3nc[nH]c3CCN2Cc2cccnc2)cc1`, the “% Inhibition” value is listed as -21% and the Z score is given as 1.89.
The corresponding values for `CN1CCCC[C@@H]1CCOc1ccc([C@H]2CC[C@H](N(C)C(=O)c3ccc(Cl)cc3)CC2)cc1` are 6% and -0.68.
As for `CC(C)N(CC(=O)Nc1cccc(N2CCCC2=O)c1)Cc1ccccc1`, the “% Inhibition” value is listed as -12% and the Z score worked out at 1.86.
Turning to `CCn1ncnc1CN[C@H]1CCc2cc(F)c(Cl)cc21`, the “% Inhibition” value is on record as -2% and the Z score came to 0.39.
Turning to `CC(C)c1nnc(C2CCN(C(=O)Cc3c[nH]c4ccccc34)CC2)o1`, the “% Inhibition” value is listed as 12% and the Z score is on record as -1.6.
`Clc1cccc(-c2noc([C@H]3CC34CCN(Cc3nc(C5CC5)no3)CC4)n2)c1`: the “% Inhibition” value is reported as -1% and the Z score is reported as 0.17.
Regarding `COc1ccc(CCc2nnc(NC(=O)Cc3c(C)noc3C)[nH]2)cc1OC`, the “% Inhibition” value is 49% and the Z score is listed as -6.37.
For the compound `O=C(Nc1cccc(-c2nnc3n2CCCC3)c1)c1ccccn1`, the “% Inhibition” value is -8% and the Z score came to 1.29.
For the compound `Cc1csc(Cn2ccnc2-c2cc3n(n2)CCCNC3)n1`, the “% Inhibition” value is -5% and the Z score was found to be 0.93.
Regarding `Cn1ncnc1C(=O)NC[C@H]1CC1(C)C`, the “% Inhibition” value is -7% and the Z score is given as 0.7.
Take `CN1CCN(CC(C)(C)Nc2nccc3cccnc23)CC1`: the “% Inhibition” value was -7% and the Z score was 1.1.
Taken in the same sequence, the figures for `CN(C)c1c(F)cc(NC(=O)c2nccnc2N)cc1F` were 3% and -0.4.
Taken in the same sequence, the figures for `CC(C)c1nccc(-c2nccn2-c2ccc(S(N)(=O)=O)cc2)n1` were -3% and 0.53.
For the compound `C[C@H](C#N)C(=O)NC1CCC(F)(F)CC1`, the “% Inhibition” value is -9% and the Z score is given as 1.31.
For `COCc1nccc(N[C@H]2CCc3c(OC)cccc32)n1`, the “% Inhibition” value is recorded as -18% and the Z score was 3.39.
`O=C(Nc1nc(-c2ccc3c(c2)CCCC3)cs1)[C@@H]1CCCO1`: the “% Inhibition” value is -4% and the Z score is reported as 0.55.
Take `CO[C@H]1CCC12CCN(Cc1cccnc1)CC2`: the “% Inhibition” value is -7% and the Z score came to 0.95.
Consider `C[C@@H](CCc1cccc(F)c1)NC(=O)C(=O)Nc1ccn(C)n1`, for which the “% Inhibition” value was -11% and the Z score is given as 1.67.
Turning to `Cc1ccc(NC(=O)N(CCN2CCCC2)CC(=O)N(Cc2ccc(F)cc2)Cc2cccs2)cc1C`, the “% Inhibition” value was determined as 6% and the Z score is -0.76.
As for `Fc1cccc(-c2n[nH]c3c2CN(CC2CCC2)CC3)c1`, the “% Inhibition” value is recorded as -3% and the Z score is 0.43.
Regarding `Cc1cnn(CC(=O)Nc2ccc3[nH]c(=O)[nH]c3c2)c1`, the “% Inhibition” value is -11% and the Z score was determined as 1.79.
For the compound `CN1CCCC1C1CCCN1C(=O)C1CC1c1ccco1` (stereo not given), the “% Inhibition” value was -7% and the Z score is given as 0.93.
Take `CCc1nc2ccccc2n1[C@@H](CC)C(=O)NCCn1cc(C)cn1`: the “% Inhibition” value is 5% and the Z score is -0.71.
For the compound `CC(C)[C@]1(C(=O)O)CCN(C(=O)CC(C)(C)C)C1`, the “% Inhibition” value is recorded as -12% and the Z score came to 1.9.
Taken in the same sequence, the figures for `O=C1NC2(CCN(Cc3ccccc3)CC2)Nc2cccc(Cl)c21` were -3% and 0.42.
Taken in the same sequence, the figures for `Clc1ccc(CNc2ccc3cn[nH]c3c2)cc1Cl` were 8% and -1.18.
For `Cn1ccnc1CN1CCN(C(=O)C2CCC2)[C@H]2CS(=O)(=O)C[C@H]21`, the “% Inhibition” value was found to be 6% and the Z score is listed as -0.85.
As for `COC(=O)[C@H]1CCn2c(COc3cccc(C)c3)nnc2C1`, the “% Inhibition” value is reported as -6% and the Z score was 0.98.
Take `O=C(NC1CC2CCC1C2)c1ccc(CN2CCOCC2)cc1` (stereo not given): the “% Inhibition” value is listed as -8% and the Z score amounted to 0.94.
In the case of `O=S(=O)(CCNS(=O)(=O)c1cccc(Br)c1)Nc1ccccn1`, the “% Inhibition” value is given as -15% and the Z score was determined as 2.31.
Regarding `CCC1(O)CCN(C(=O)N[C@@H](C)c2ccc(F)cc2Cl)C1` (stereo not given in full), the “% Inhibition” value is -9% and the Z score came out at 1.78.
Turning to `CCOC(=O)Cc1cc(O)c2c(=O)n(-c3ccccc3)[nH]c2n1`, the “% Inhibition” value was -16% and the Z score was found to be 2.38.
Turning to `Cc1cc(=O)cc(C)n1-c1ccccc1N1CCOCC1`, the “% Inhibition” value is given as -2% and the Z score is 0.2.
Take `O=C(c1cc(-c2ccc(F)cc2)c[nH]1)N1CC(S(=O)(=O)c2ccc(Cl)cc2)C1`: the “% Inhibition” value is 1% and the Z score is -0.17.
The corresponding values for `CC1(C)CCN1C(=O)c1cc(Cl)c2c(c1)OCCCO2` are 27% and -3.02.
Take `CCc1cccn(Cc2nccc(C)n2)c1=O`: the “% Inhibition” value is recorded as -15% and the Z score is 2.34.
Turning to `CCn1ncc(C(=O)N(CCOC)Cc2scnc2C)n1`, the “% Inhibition” value worked out at 5% and the Z score is recorded as -0.55.
In the case of `CCOCCO[C@@H](C)C(=O)N(Cc1ccccn1)C(C)C`, the “% Inhibition” value is given as -14% and the Z score came to 2.05.
As for `CC(=O)N1CCc2cc(N[C@@H](C)C(=O)N3CCC(C)CC3)ccc21`, the “% Inhibition” value is recorded as -4% and the Z score is on record as 0.82.
In the case of `Cc1occc1C(=O)N1CC[C@H](OCCCc2ccccc2)C1`, the “% Inhibition” value is -7% and the Z score turned out to be 0.74.
Take `NC(=O)c1ccc(NC(=O)CN2CC(O)C2)cc1`: the “% Inhibition” value is listed as -6% and the Z score was determined as 0.82.
In the case of `O=C(CN1CCN(Cc2ccccc2)CC1)N[C@H]1CCc2ccccc21`, the “% Inhibition” value is given as -22% and the Z score is recorded as 2.25.
Taken in the same sequence, the figures for `O=C(O)[C@H]1CCCCN1C(=O)C1CC1c1ccc(F)c(F)c1` (stereo not given in full) were 3% and -0.28.
Consider `CCc1cnc(CNC(=O)N(CC2CCC2)C(C)C)s1`, for which the “% Inhibition” value was -17% and the Z score is given as 2.4.
Take `CC(=O)c1ccc(S(=O)(=O)N2CCc3c(c(-c4nnc(-c5ccc(F)cc5)o4)nn3C)C2)cc1`: the “% Inhibition” value is listed as -9% and the Z score is 1.08.
For `CC1CCC(c2noc(C3(c4cccc(OC(F)(F)F)c4)CCC3)n2)O1` (stereo not given), the “% Inhibition” value was -19% and the Z score is listed as 2.17.
The corresponding values for `CC(c1ccccc1)N1C(=O)C2C3CC(c4ccccc4)C(C3)C2C1=O` (stereo not given) are 9% and -1.18.
`O=c1[nH]c(NC2CCCC2)nc2nccc(-c3ccccc3Cl)c12`: the “% Inhibition” value is -11% and the Z score turned out to be 1.56.
As for `Cc1ccc(-c2c[nH]c([C@@H]3CNC(=O)C3)n2)cc1C`, the “% Inhibition” value is -3% and the Z score was determined as 0.34.
As to `O=C(c1cnccn1)N1CC[C@H](S(=O)(=O)c2ccccc2)C1`, the “% Inhibition” value is -18% and the Z score turned out to be 3.1.
As to `Fc1ccccc1N1CCN(c2ncnc3c2nc2n3CCCCC2)CC1`, the “% Inhibition” value is recorded as -9% and the Z score is recorded as 1.29.
For `O=C1[C@@H]2CCCN2C(=O)N1Cc1ccc(F)cc1`, the “% Inhibition” value is recorded as -4% and the Z score is given as 0.36.
In the case of `Cc1ccn(CC(=O)N2CC(c3ccccc3C)OCC2C)c(=O)c1` (stereo not given), the “% Inhibition” value is -9% and the Z score was found to be 0.77.
Regarding `Cc1nc(C(=O)NCCN(C)C2CCCCC2)c(C)o1`, the “% Inhibition” value was -6% and the Z score turned out to be 1.13.
With `O=C(NC[C@H](O)C1CC1)Nc1ccc(Br)cn1`, the “% Inhibition” value is listed as -15% and the Z score is recorded as 2.17.
Turning to `Cc1nn(-c2ccccc2)c(C)c1C(=O)NCc1cccnc1N1CCN(C)CC1`, the “% Inhibition” value came to 3% and the Z score was -0.37.
Consider `O=C(NC1CCN(c2nnc3ccccn23)CC1)c1ccoc1`, for which the “% Inhibition” value is recorded as 34% and the Z score is recorded as -3.89.
Regarding `O=C1C[C@H](Nc2ccc3c(c2)OCCCO3)C(=O)N1CCc1ccccc1F`, the “% Inhibition” value was 1% and the Z score is listed as -0.13.
Take `Cc1cc(NC(=O)N2CC3(CC=CC3)[C@@H]2C(C)C)cc(C(N)=O)c1`: the “% Inhibition” value is listed as -2% and the Z score was 0.22.
On to `O=S1(=O)NC(c2ccccc2)(c2ccccc2)c2ccccc21`, for which the “% Inhibition” value is 36% and the Z score was -4.67.
Taken in the same sequence, the figures for `CNc1snc(C)c1C(=O)OCc1nnc(-c2ccccc2)o1` were -31% and 3.63.
Consider `CC(NC(=O)c1coc(CN(Cc2cccc(F)c2)C(C)c2ccccc2)n1)c1ccccc1` (stereo not given), for which the “% Inhibition” value is reported as -1% and the Z score was 0.23.
Taken in the same sequence, the figures for `O=C(Nc1ccccc1)N1CCO[C@@H](CN2CCCN(C(=O)c3ccc4ccccc4c3)CC2)C1` were -4% and 0.69.
As for `CNC(=O)[C@H]1CC[C@H](CNc2nc(C)ncc2C)CC1`, the “% Inhibition” value is listed as -6% and the Z score is on record as 1.1.
Regarding `O=C1NC[C@@H]2CCC[C@@H](CCOc3ccccc3C(=O)N3CCN(CC4CCCCC4)C[C@@H]13)O2`, the “% Inhibition” value is recorded as -2% and the Z score is recorded as 0.32.
